Columns and labels:
CD80-FLAG-GPI [1] = biological target: T1, CD80-FLAG-GPI (human); assay: flow cytometry on CHO-K1/CD80 cells, binder at 500 ng/ml
T1 construct: also called CHO-K1/CD80 cells
T1 chain: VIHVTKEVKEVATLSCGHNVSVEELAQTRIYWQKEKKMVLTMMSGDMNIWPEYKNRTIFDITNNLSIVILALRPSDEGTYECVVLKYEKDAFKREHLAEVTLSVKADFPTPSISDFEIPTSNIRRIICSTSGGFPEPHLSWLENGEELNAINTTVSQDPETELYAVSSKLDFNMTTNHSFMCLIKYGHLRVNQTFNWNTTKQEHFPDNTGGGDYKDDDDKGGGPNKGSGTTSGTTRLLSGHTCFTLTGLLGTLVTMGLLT
Protocol: (§1) Purified test samples (HuABC2-CH3-CTLA4YE, HuABC2-Ck-CTLA4YE, HuABC2-CTLA4YE-VH, and HuABC2-CTLA4YE-Vk) and belatacept, starting at 10 μg/mland five steps of 4-fold serial dilutions, were incubated with CHO-K1/CD80 or CHO-K1/CD86 cells in FACS Buffer (PBS containing 0.5% BSA and 0.05% sodium azide) for 30 min at 4° C. After washing with FACS Buffer, cells were incubated with PE-labeled goat anti-human IgG antibody (SouthernBiotech, Birmingham, Ala.) in FACS Buffer for 20 min at 4° C. After washing and suspension in FACS Buffer, stained cells were subjected to flow cytometry.
(§2) The two expression vectors (pHC644 and pHC645) were individually transfected into HEK293 cells as described above. Their expression level in culture supernatants was measured by sandwich ELISA as described above. Binding of HuABC77D-CH3-CTLA4YE and HuABC77D-CTLA4YE-VH to CHO-K1/CD80 and CHO-K1/CD86 cells was analyzed by flow cytometry as described above. Belatacept was used as a reference for binding to CD80 and CD86. The test samples were used at 500 ng/ml and four steps of 3-fold serial dilutions.
(§3) The results of binding to CHO-K1/CD80 and CHO-K1/CD86 cells are shown in FIGS. 13A and B, respectively.

CD86-FLAG-GPI [2] = biological target: T2, CD86-FLAG-GPI (human); assay: flow cytometry on CHO-K1/CD86 cells, binder at 500 ng/ml
T2 construct: also called CHO-K1/CD86 cells
T2 chain: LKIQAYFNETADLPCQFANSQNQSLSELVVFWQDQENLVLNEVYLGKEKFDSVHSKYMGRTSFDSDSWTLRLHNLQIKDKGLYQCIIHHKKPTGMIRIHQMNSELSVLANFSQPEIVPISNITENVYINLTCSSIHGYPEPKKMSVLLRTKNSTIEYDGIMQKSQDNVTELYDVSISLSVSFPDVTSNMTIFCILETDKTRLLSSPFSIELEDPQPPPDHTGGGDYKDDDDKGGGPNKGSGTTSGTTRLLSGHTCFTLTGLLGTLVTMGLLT
Protocol: as §1, §2, §3

CD80-FLAG-GPI [3] = biological target: T1, CD80-FLAG-GPI; assay: flow cytometry on CHO-K1/CD80 cells, binder at 200 ng/ml
Protocol: as §1
(§4) The two expression vectors (pHC642 and pHC630) were individually transfected into HEK293 cells as described above. Their expression level in culture supernatants was measured by sandwich ELISA as described above. Binding of transiently expressed HuABC101-CTLA4YE-VH and HuABC101-CH3-CTLA4YE to CD80 and CD86 was analyzed by flow cytometry as described above. Belatacept was used as a reference for binding to CD80 and CD86.
(§5) Binding of HuABC101-CH3-CTLA4YE to each of CD80 and CD86 was much weaker than the binding of HuABC101-CTLA4YE-VH.

CD86-FLAG-GPI [4] = biological target: T2, CD86-FLAG-GPI; assay: flow cytometry on CHO-K1/CD86 cells, binder at 200 ng/ml
Protocol: as §1, §4, §5

CD80-FLAG-GPI [5] = biological target: T1, CD80-FLAG-GPI; assay: flow cytometry on CHO-K1/CD80 cells, binder at 625 ng/ml, PE anti-human IgG
Protocol: (§6) CHO-K1 stable transfectants expressing CD80-FLAG-GPI (CHO-K1/CD80) and CD86-FLAG-GPI (CHO-K1/CD86) were generated by electroporation with pFCm553 and pFCm554, respectively, as described above. Binding of HuABC2-CH3-CTLA4YE, HuABC2-Ck-CTLA4YE, HuABC2-CTLA4YE-VH and HuABC2-CTLA4YE-Vk to CHO-K1/CD80 and CHO-K1/CD86 cells was analyzed by flow cytometry. Belatacept (also known as LEA29Y and Nulojix; SEQ ID NO:49), which is a CTLA4-Ig fusion protein carrying a substitution of an alanine residue to a tyrosine residue at position 29 (A29Y) and another substitution of a leucine residue to a glutamate residue at position 104 (L104E) of SEQ ID NO:10 (Larsen et al., Am. J. Transplant. 5:443-453, 2005; Oshima et al., Protein Eng. Des. Sel. 29:159-167, 2016), was purchased from Creative Biomart (Cat. No. THP-0109, Shirley, N.Y.) and used as a reference in the experiments.
as §1
The binding patterns of HuABC2-CH3-CTLA4YE, HuABC2-Ck-CTLA4YE, HuABC2-CTLA4YE-VH, HuABC2-CTLA4YE-Vk and belatacept to CHO-K1/CD80 cells are shown in FIG. 9A. While the binding of each of HuABC2-CTLA4YE-VH and HuABC2-CTLA4YE-Vk to CD80 was only slightly weaker than the binding of belatacept, the binding of HuABC2-CH3-CTLA4YE and HuABC2-Ck-CTLA4YE was a lot weaker than that of belatacept.

CD86-FLAG-GPI [6] = biological target: T2, CD86-FLAG-GPI; assay: flow cytometry on CHO-K1/CD86 cells, binder at 625 ng/ml, PE anti-human IgG
Protocol: as §6, §1
The binding patterns of HuABC2-CH3-CTLA4YE, HuABC2-Ck-CTLA4YE, HuABC2-CTLA4YE-VH, HuABC2-CTLA4YE-Vk and belatacept to CHO-K1/CD86 cells are shown in FIG. 9B. Like the case with CHO-K1/CD80 cells, while the binding of each of HuABC2-CTLA4YE-VH and HuABC2-CTLA4YE-Vk to CD86 was only slightly weaker than the binding of belatacept, the binding of HuABC2-CH3-CTLA4YE and HuABC2-Ck-CTLA4YE was a lot weaker than the binding of belatacept.

B1: HuABC77D-CTLA4YE-VH (other)
heavy: MHVAQPAVVLASSRGIASFVCEYASPGKYTEVRVTVLRQADSQVTEVCAATYMMGNELTFLDDSICTGTSSGNQVNLTIQGLRAMDTGLYICKVELMYPPPYYEGIGNGTQIYVIDPEPCPDSDSGGGGSGGGGSEVQLVESGGGLVQPGGSLRLSCAASGFDFSRYWMSWVRQAPGKGLEWIGEINPDSSTINYAPSLKDRFTISRDNAKNSLYLQMNSLRAEDTAVYYCARHDYDEGIYFDYWGQGTTVTVSS[gap - human IgG1 constant region with changes]
light: DIQMTQSPSSLSASVGDRVTITCSASSRVIYMHWYQQKPGKAPKRWIYDTSKLASGVPSRFSGSGSGTEFTLTISSLQPEDFATYYCQQWSSNPPTFGGGTKVEIKRTVAAPSVFIFPPSDEQLKSGTASVVCLLNNFYPREAKVQWKVDNALQSGNSQESVTEQDSKDSTYSLSSTLTLSKADYEKHKVYACEVTHQGLSSPVTKSFNRGEC
notes: encoded by pHC644; transient HEK293 supernatant
For B1, the “mean channel fluorescence (MCF)” value (CD80-FLAG-GPI [1]) was 4590 and the “mean channel fluorescence (MCF)” value (CD86-FLAG-GPI [2]) was 794.

B2: HuABC101-CTLA4YE-VH (other)
heavy: MHVAQPAVVLASSRGIASFVCEYASPGKYTEVRVTVLRQADSQVTEVCAATYMMGNELTFLDDSICTGTSSGNQVNLTIQGLRAMDTGLYICKVELMYPPPYYEGIGNGTQIYVIDPEPCPDSDSGGGGSGGGGSQVQLQESGPGLVKPSQTLSLTCTVSGYSITNDNHWWNWIRQHPGKGLEWMGYIDSSGSSDNNPSLKSQITISRDTSKNQLSLKLSSVTAADTAVYYCARGGGRDYYGMDYWGQGTTVTVSS[gap - human IgG1 constant region]
light: DIVMTQSPDSLGVSLGERATINCRASQSVSTSSYSYVHWYQQKPGQPPKLLIKYASNLESGVPDRFSGSGSGTDFTLTISSLQAEDVAVYYCQHSWDIPFTFGQGTKLEIKRTVAAPSVFIFPPSDEQLKSGTASVVCLLNNFYPREAKVQWKVDNALQSGNSQESVTEQDSKDSTYSLSSTLTLSKADYEKHKVYACEVTHQGLSSPVTKSFNRGEC
notes: encoded by pHC642; transient HEK293 supernatant
In the case of B2, the “mean channel fluorescence (MCF)” value (CD80-FLAG-GPI [3]) is reported as 1160 and the “mean channel fluorescence (MCF)” value (CD86-FLAG-GPI [4]) is reported as 745.

B3: HuABC101-CH3-CTLA4YE (other)
heavy: QVQLQESGPGLVKPSQTLSLTCTVSGYSITNDNHWWNWIRQHPGKGLEWMGYIDSSGSSDNNPSLKSQITISRDTSKNQLSLKLSSVTAADTAVYYCARGGGRDYYGMDYWGQGTTVTVSS[gap - human IgG1 constant region]GGGGSGMHVAQPAVVLASSRGIASFVCEYASPGKYTEVRVTVLRQADSQVTEVCAATYMMGNELTFLDDSICTGTSSGNQVNLTIQGLRAMDTGLYICKVELMYPPPYYEGIGNGTQIYVIDPEPCPDSD
light: DIVMTQSPDSLGVSLGERATINCRASQSVSTSSYSYVHWYQQKPGQPPKLLIKYASNLESGVPDRFSGSGSGTDFTLTISSLQAEDVAVYYCQHSWDIPFTFGQGTKLEIKRTVAAPSVFIFPPSDEQLKSGTASVVCLLNNFYPREAKVQWKVDNALQSGNSQESVTEQDSKDSTYSLSSTLTLSKADYEKHKVYACEVTHQGLSSPVTKSFNRGEC
notes: encoded by pHC630; transient HEK293 supernatant
In the case of B3, the “mean channel fluorescence (MCF)” value (CD80-FLAG-GPI [3]) is reported as 291 and the “mean channel fluorescence (MCF)” value (CD86-FLAG-GPI [4]) is reported as 108.

B4: HuABC2-CTLA4YE-VH (other)
heavy: MHVAQPAVVLASSRGIASFVCEYASPGKYTEVRVTVLRQADSQVTEVCAATYMMGNELTFLDDSICTGTSSGNQVNLTIQGLRAMDTGLYICKVELMYPPPYYEGIGNGTQIYVIDPEPCPDSDSGGGGSGGGGSEVQLVESGGGLVQPGGSLRLSCAASGFTFSDFYMEWVRQAPGKGLEWIAASRNKANDYTTEYSASVKGRFIVSRDDSKNSLYLQMNSLKTEDTAVYYCARSYYRYDGMDYWGQGTTVTVSS[gap - human IgG1 constant region with changes]
light: EIVLTQSPATLSLSPGERATLSCSAISSVSYMYWYQQKPGQAPRLLIYDTSNLVSGVPARFSGSGSGTDYTLTISSLEPEDFAVYYCQQWNTYPYTFGGGTKVEIKRTVAAPSVFIFPPSDEQLKSGTASVVCLLNNFYPREAKVQWKVDNALQSGNSQESVTEQDSKDSTYSLSSTLTLSKADYEKHKVYACEVTHQGLSSPVTKSFNRGEC
notes: encoded by pHC640
For B4, the “mean channel fluorescence (MCF)” value (CD80-FLAG-GPI [5]) was 1310 and the “mean channel fluorescence (MCF)” value (CD86-FLAG-GPI [6]) was 1290.

B5: HuABC2-Ck-CTLA4YE (other)
heavy: EVQLVESGGGLVQPGGSLRLSCAASGFTFSDFYMEWVRQAPGKGLEWIAASRNKANDYTTEYSASVKGRFIVSRDDSKNSLYLQMNSLKTEDTAVYYCARSYYRYDGMDYWGQGTTVTVSS[gap - human IgG1 constant region with changes]
light: EIVLTQSPATLSLSPGERATLSCSAISSVSYMYWYQQKPGQAPRLLIYDTSNLVSGVPARFSGSGSGTDYTLTISSLEPEDFAVYYCQQWNTYPYTFGGGTKVEIKRTVAAPSVFIFPPSDEQLKSGTASVVCLLNNFYPREAKVQWKVDNALQSGNSQESVTEQDSKDSTYSLSSTLTLSKADYEKHKVYACEVTHQGLSSPVTKSFNRGECSGGGGSGMHVAQPAVVLASSRGIASFVCEYASPGKYTEVRVTVLRQADSQVTEVCAATYMMGNELTFLDDSICTGTSSGNQVNLTIQGLRAMDTGLYICKVELMYPPPYYEGIGNGTQIYVIDPEPCPDSD
notes: heavy chain with L234A/L235A; encoded by pHC623
In the case of B5, the “mean channel fluorescence (MCF)” value (CD80-FLAG-GPI [5]) is reported as 307 and the “mean channel fluorescence (MCF)” value (CD86-FLAG-GPI [6]) is reported as 13.

B6: HuABC2-CTLA4YE-Vk (other)
heavy: EVQLVESGGGLVQPGGSLRLSCAASGFTFSDFYMEWVRQAPGKGLEWIAASRNKANDYTTEYSASVKGRFIVSRDDSKNSLYLQMNSLKTEDTAVYYCARSYYRYDGMDYWGQGTTVTVSS[gap - human IgG1 constant region with changes]
light: MHVAQPAVVLASSRGIASFVCEYASPGKYTEVRVTVLRQADSQVTEVCAATYMMGNELTFLDDSICTGTSSGNQVNLTIQGLRAMDTGLYICKVELMYPPPYYEGIGNGTQIYVIDPEPCPDSDSGGGGSGGGGSEIVLTQSPATLSLSPGERATLSCSAISSVSYMYWYQQKPGQAPRLLIYDTSNLVSGVPARFSGSGSGTDYTLTISSLEPEDFAVYYCQQWNTYPYTFGGGTKVEIKRTVAAPSVFIFPPSDEQLKSGTASVVCLLNNFYPREAKVQWKVDNALQSGNSQESVTEQDSKDSTYSLSSTLTLSKADYEKHKVYACEVTHQGLSSPVTKSFNRGEC
notes: heavy chain with L234A/L235A; encoded by pHC641; also called HuABC2-CTLA4-Vk
In the case of B6, the “mean channel fluorescence (MCF)” value (CD80-FLAG-GPI [5]) is reported as 1310 and the “mean channel fluorescence (MCF)” value (CD86-FLAG-GPI [6]) is reported as 956.

— patent publication US20220306753A1 (JN BIOSCIENCES, published 2022)
